# Laboratory results taken from article PMC12136788.
# Some of the results follow.
# T1: UNK ZnF1-6 (called full-length) (human, UniProt Q9C0B0 30-357)
# T1 sequence: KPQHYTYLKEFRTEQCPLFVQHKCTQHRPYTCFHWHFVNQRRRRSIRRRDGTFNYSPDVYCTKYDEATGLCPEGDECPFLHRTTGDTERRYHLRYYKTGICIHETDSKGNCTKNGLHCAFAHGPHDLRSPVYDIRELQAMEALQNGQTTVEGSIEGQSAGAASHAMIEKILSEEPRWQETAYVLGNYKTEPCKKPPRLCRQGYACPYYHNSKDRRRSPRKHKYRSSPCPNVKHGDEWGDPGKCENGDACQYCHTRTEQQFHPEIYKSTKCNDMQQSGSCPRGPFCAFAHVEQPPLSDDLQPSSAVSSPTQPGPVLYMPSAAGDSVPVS
# B1: chr5:113594843:113594944:+|3pUTR|ENSG00000047188|msi1|FALSE|bound_elsewhere (ssRNA)
# RNA: GGGAGUUCUACAGUCCGACGAUCCAACAUAAAAUCUUGAGAACCUUCUACUUUCUCUGGGAAAGCAUUAUAUAGUGGUGCAUUAGUUUAGAAAGUCAGCUAUGAUUUUGCCUAUAGUUCUAGUUAUUAGCUUUGGGGUUUUCUCAACAGAGGAUUGAGCAUCA
# B2: chr8:22006149:22006250:+|3pUTR|ENSG00000130227|msi1|total|mutant (ssRNA)
# RNA: GGGAGUUCUACAGUCCGACGAUCGAAUGUAUGAACUGGAGGAAGUUACUACAGUGGAAGGGUUCUUAAUAACAAGGUCUACCCCGCAUGAAGUAUUUAACAUUCUCCCAUCCCUUAAAAAAUAUACAUUUUUAUAAAAUGAAACAACAGAGGAUUGAGCAUCA
# B3: chr7:41961162:41961264:-|3pUTR|ENSG00000106571|unk|total|mutant (ssRNA)
# RNA: GGGAGUUCUACAGUCCGACGAUCCCCUUGUGUAUCCUGCAGACAUGUAAAAUAAAAUACAAGUUCAUUUUUUUCACCUUUUUCCGAUUUUUUUAAAAAAUAAAAUGUGUAAUCCUUUUUUUAAAAGAAACACAUGUAAAUACACAACAGAGGAUUGAGCAUCA
# B4: chr1:3780741:3780842:-|3pUTR|ENSG00000130764|unk|total|mutant (ssRNA)
# RNA: GGGAGUUCUACAGUCCGACGAUCCCAAGCCGCUGGGACUACAGGUGUGUGCCACUAAGCUCAGCUAAUUUUUGUAUUUUCCGCCGAGACGGGGUUUCACCAUUUUGACCAGGAUGGUCUUGAUCUCUUGACCUCAUGAUCUGUCAACAGAGGAUUGAGCAUCA
# B5: chr1:198253062:198253183:+|CDS|ENSG00000151414|unk|FALSE|unique (ssRNA)
# RNA: GGGAGUUCUACAGUCCGACGAUCAUGGGCUAUAAUACAUUAGCCAACUUUCGAAUAGAAAAGAAAAUUGGUCGCGGACAAUUUAGUGAAGUUUAUAGAGCAGCCUGUCUCUUGGAUGGAGUACCAGUAGCUUUAAAAAAAGUGCAACAGAGGAUUGAGCAUCA
# B6: chr1:32196777:32196878:+|3pUTR|ENSG00000084652|msi1|FALSE|unique (ssRNA)
# RNA: GGGAGUUCUACAGUCCGACGAUCUUUGAAGCUAGUUCAUUGUCCUGCAGGUCCCUUCAUCUUCCAUACCUAGCCCACUCUUUUAGCCCUUACCUUAAAUCUCUCAGAUAAGUUGGUUCACAAAGAAUGUUAAGUACUGAAUCACAACAGAGGAUUGAGCAUCA
# B7: chrX:93670929:93671783:-|three_prime_utr|ENSG00000186310|control|control|control (ssRNA)
# RNA: GGGAGUUCUACAGUCCGACGAUCUCAUACAGCCUUGAAAAAAGUAAAACCCUGACCUGUAACCUGAACACUAUUAUUCCUUAUAGUCAAGUUUUUGUGGUUUCUUGGUAGUCUAUAUUUUAAAAAUAGUCCUAAAAAGUGUCUCAACAGAGGAUUGAGCAUCA
# B8: chr3:57561443:57561544:+|3pUTR|ENSG00000174840|unk|total|mutant (ssRNA)
# RNA: GGGAGUUCUACAGUCCGACGAUCGAAAUUUAAAUAUGAAGCCAAACUUUUUAAAAUCCGAAACUACAAAUGGUUAUACUGAUCCGUGUCCCGCCCCGAGUGGUAACCAUGCUUUACUAAUUCAGUUAUGAAAUACAUUAUUUACAACAGAGGAUUGAGCAUCA
# B9: chr5:40767470:40767586:-|CDS|ENSG00000132356|unk|FALSE|unique (ssRNA)
# RNA: GGGAGUUCUACAGUCCGACGAUCUUUAAGAAGAUAUGUGAUGGGAUCUUCUAUACCCCUCAAUAUUUAAAUCCUUCUGUGAUUAGCCUUUUGAAACAUAUGCUGCAGGUGGAUCCCAUGAAGAGGGCCACAAUCAAAGAUAUCCAACAGAGGAUUGAGCAUCA
# B10: chr8:23844609:23844711:-|3pUTR|ENSG00000159167|msi1|FALSE|unique (ssRNA)
# RNA: GGGAGUUCUACAGUCCGACGAUCUUUAGGGGUGUUGACACACCAGUUUUGAGUGUACUGUGCCUGGUUUGAUUUUUUUAAAGUAGUUCCUAUUUUCUAUCCCCCUUAAAGAAAAUUGCAUGAAACUAGGCUUCUGUAAUCAAUCAACAGAGGAUUGAGCAUCA
# B11: chr6:111661451:111661552:-|3pUTR|ENSG00000010810|msi1|total|mutant (ssRNA)
# RNA: GGGAGUUCUACAGUCCGACGAUCCUUUGGAAAAUGCAUUGUAUCGAUGUUAUGUAAAAGGCCAAACCUCUGUUCAGUGUAAACCGUUACUCCAGUGCCAACAAUCCCCGUGCUUUCCUUUUUUAAAAAUGCAAAUCCUAUGUGCAACAGAGGAUUGAGCAUCA
# B12: chr4:65323451:65323552:-|3pUTR|ENSG00000145242|msi1|FALSE|unique (ssRNA)
# RNA: GGGAGUUCUACAGUCCGACGAUCAUCAAGAAAAAGUACAAUACAGGGUGUAUAUUUAUUUUUUGUGUUAUAAAGUUUACUUUUAGUUGCUCUUCUAGAGAUUAUUAGGUAAUAAAUGUGUAUAUACUGUAUAAUUUGCAAUAUCAACAGAGGAUUGAGCAUCA
# B13: chr3:113720845:113720875:-|3pUTR|ENSG00000121579|msi1_unk|total|mutant (ssRNA)
# RNA: GGGAGUUCUACAGUCCGACGAUCCCUUUUUCUUCAGUAAACCCAACAACCGUCUAACCUUAAAAAUUGAGUUGAUGUCCUUACCGGUCACUACCCCUAAAUAAACCUGAAGCAGGUGUUUUCUCUUGGACAUACUAAAAAAUACAACAGAGGAUUGAGCAUCA
# B14: chr1:93180074:93180188:-|CDS|ENSG00000117500|unk|total|mutant (ssRNA)
# RNA: GGGAGUUCUACAGUCCGACGAUCCUGGCCGCUCUGCCUCCGGUGCUGCUGCCUGGGGCGGCCGGCUUCACACCUUCCCUCGACCGCGACUUCACCUUUACCCUUCCCGCCGGCCAGAAGGAGUGCUUCUACCAGCCCAUGCCCCAACAGAGGAUUGAGCAUCA
# B15: chr15:64957256:64957357:+|3pUTR|ENSG00000166839|msi1|FALSE|unique (ssRNA)
# RNA: GGGAGUUCUACAGUCCGACGAUCGCUGGAAAAUUGAAACAUAAUUUCACAAUUAUUCCUUUUUCCACCUUAAAUAAUAAGAGUAGAAUACUUUCUGUGUUUUUAUCUUAUACACAUGAAUAAAUGCUAUGGCUUAUCACAGUUCAACAGAGGAUUGAGCAUCA
# B16: chr9:34241424:34241533:+|CDS|ENSG00000165006|unk|total|mutant (ssRNA)
# RNA: GGGAGUUCUACAGUCCGACGAUCAACCCCAUCCUCGCCAGCUUGCAGCACAACAGCAUCCUCACACCAACUCGGGUCAGCAGCCGUGCCACGAAACAGAAAGUUCUCAGCCCACCUCACAUAAAGGCGGAUUUCAAUCUUGCUCAACAGAGGAUUGAGCAUCA
# B17: chr12:102196458:102196651:-|three_prime_utr|ENSG00000183395|control|control|control (ssRNA)
# RNA: GGGAGUUCUACAGUCCGACGAUCGGAGAAGCCCAUACUGCUACUAUAACUUGUGUAUGUUAAAUGUCUGUUUUAAAAGAAAGUAGUGUUAAGAUGUAUCAGUAACUGAAAUGAUAUGCUUUCUCUGUGCAUUAAACUUUGUGACAACAGAGGAUUGAGCAUCA
# B18: chr9:123379744:123379845:-|3pUTR|ENSG00000119522|msi1|total|mutant (ssRNA)
# RNA: GGGAGUUCUACAGUCCGACGAUCGUGUUUCAGCACCGAUUCCAGUUUCGCACCCUGGGCAGACCCCCAGGCCCCAUCCGGGACCGGGCAGAGGAGGUGCUGGCGGCCCCAGGGAAGGAGGGUGUGUACCCCAAGGCCCCCUGGCAACAGAGGAUUGAGCAUCA
# B19: chr8:30843048:30843149:-|CDS|ENSG00000133863|unk|FALSE|unique (ssRNA)
# RNA: GGGAGUUCUACAGUCCGACGAUCGGAUACUAUAAUUGCUUCCAGAAAGUCAGAUCAUCCAAUAAACGAAGCAACAAUUAGCAUAGAAAAUUCUAAAUUUAACAGUAAUUUGCUUGCACACCCAGAUAUUUGUUGUAUUAGUGACAACAGAGGAUUGAGCAUCA
# B20: chr1:89933607:89933717:+|CDS|ENSG00000171492|unk|total|mutant (ssRNA)
# RNA: GGGAGUUCUACAGUCCGACGAUCCAACUUUUGGUUCAAAUAUCCCAAAACAUGCUCAAAAGCCGAACAUUUUGUUUCAAUAUCCGGAAAGUGCUUUGAAUCCCCUUGGACGACAAAAGCGUUGUCUGAGACAGCAUGCGAAGACAACAGAGGAUUGAGCAUCA
# B21: ENSG00000130508:stop:overlap|stop_codon|ENSG00000130508|stop_codon|NA|stop_codon (ssRNA)
# RNA: GGGAGUUCUACAGUCCGACGAUCUGAACAUCCCAGGGGCCUGCUGUCCAGUCUGCUUACAGAAGAGGGCGGAGGAAAAGCCCUAGGCUCCUGGGAGGCUCCUCAGAGUUUGUCUGCUGUGCCAUCGUGAGAUCGGGUGGCCGACAACAGAGGAUUGAGCAUCA
# B22: ENSG00000070961:be:win_2301|CDS|ENSG00000070961|bound_else_gene|NA|bound_elsewhere_windowed (ssRNA)
# RNA: GGGAGUUCUACAGUCCGACGAUCAUCAUCUCCUACUGAUAAGCAUACACUGGUUAAAGGUAUAAUUGACAGCACUGUCUCAGACCAACGCCAGGUUGUAGCUGUAACUGGUGAUGGUACAAAUGAUGGCCCAGCACUAAAGAACAACAGAGGAUUGAGCAUCA
# Target: T1, UNK ZnF1-6 (called full-length)
# Assay: nsRBNS (natural sequence RNA bind-n-seq); RBNS binding buffer (assumed for nsRBNS): 25 mM Tris pH 7.5, 150 mM KCl, 3 mM MgCl2, 0.01% Triton X-100, 500 ug/ml BSA, 20 U/ml SUPERase-In, 4 C; UNK is unkempt and MSI1 is Musashi-1; names of the RNAs are library labels; protein concentration not given here; high values mean tight binding
row,Binder,binding signal [enrichment R]
1,B1,5.33
2,B2,0.434
3,B3,0.72
4,B4,0.591
5,B5,1.39
6,B6,1.19
7,B7,3.53
8,B8,1.01
9,B9,0.665
10,B10,0.924
11,B11,0.288
12,B12,3.94
13,B13,0.585
14,B14,0.868
15,B15,0.535
16,B16,0.846
17,B17,0.531
18,B18,0.59
19,B19,14.2
20,B20,0.262
21,B21,0.321
22,B22,0.364
